From PubChem BioAssay AID504706 (National Center for Advancing Translational Sciences (NCATS), 2011)
The whole screen tested about 320,000 compounds, of which about 200 (0.062%) were called active. The shares of active, inactive and inconclusive entries below differ from those in the screen. Calls follow the shape of the dose curve; as a rule, active = well fitted activation curve with a large enough effect; inconclusive = small, poorly fitted or top-dose-only effect; inactive = no such curve, though single readings can be large or run the other way. Potencies of inconclusive entries are left out as doubtful fits.

assay: qHTS assay for re-activators of p53 using a Luc reporter; conditions: H1299 p53-A138V BP100-luciferase reporter, luminescence, 24 h; series mostly up to 92.2 µM; also: nearly all actives have a fitted effect of over 45% in size
From the text: The p53 tumor suppressor plays a key role in suppression of tumorigenesis and in human carcinogenesis. It is frequently found inactivated in human cancers, mainly by point mutation. These point mutations are found in a wide variety of human cancers and a majority of them affect the DNA binding domain of the protein. The point mutations either alter native p53 conformation or abolish DNA contact. Additionally, cancer cells with p53 mutations are more resistant to chemo-radiation therapies. In order to find activators to reactivate this important protein, a cell-based screen for p53-dependent luciferase-reporter expression was developed. A p53-null H1299 lung cancer cell line was stably co-transfected with a temperature sensitive p53 mutant, p53-A138V, and a p53-responsive BP100-luciferase reporter. This cell model has previously been characterized in a gene chip profiling experiment for p53 activation. By lowering the culture temperature from 37 deg C (mutant p53 conformation) to 32 deg C (w.t. p53 conformation), a 30-60 fold increase in activation of luciferase activity is observed. At assay temperate, 37 deg C, basal reporter expression is very low and after the addition of detection reagent, a luminescent read-out is carried out. NIH Chemical Genomics Center [NCGC] NIH Molecular Libraries Probe Production Centers Network [MLPCN] MLPCN Grant: DA031088-01A1 Assay Provider (PI): Yi Sung, University of Michigan at Ann Arbor
5ul of 1000 cells per well are dispensed in all wells except column 4, into white solid-bottom TC-treated Kalypsys plates. The cells are kept in Opti-MEM and supplemented with 10% FBS and dispensed using a Multidrop (Thermo). Then using the Kalypsys pin-tool, 23nl of compounds are pinned. The compounds are starting concentration at 10mM, with 1:5 dilution, 4 points, and the control compound nocodazole is pinned in column 1 at 25mM, 1:3 dilution, in duplicate, 25mM nocodazole is pinned in column 2. Please note, all concentrations are working concentrations. 5ul of 1pM purified luciferase enzyme is dispensed using the Kalypsys dispenser in column 4. Plates are incubated for 24 hrs at 37 deg C, 5% CO2, and 95% humidity. Then 4ul of the detection reagent Amplite (ABD Bioquest) is added using the Kalypsys dispenser. Plates are incubated for 10 min at ambient room temperature and are then read on the ViewLux (Perkin Elmer) using a clear filter for a luminescent read-out.
Potency is read from the fitted curve at half-maximal effect; tags tell the direction and shape of the fitted curve.

Compound | Potency
COc1ccc(P2(=O)Nc3ccccc3N2)cc1 | inconclusive [activator, full curve, poor fit]
CC(=O)C(Sc1ncnc2c1nnn2-c1ccc(F)cc1)C(=O)N(C)C (stereo unspecified) | inconclusive [activator, partial curve, poor fit]
CNC(=O)ON(C(=O)NC)C1N(C)C(=S)SC1(C)C (stereo unspecified) | inconclusive [activator, partial curve, poor fit]
O=[N+]([O-])c1ccc(Cl)c(Cl)c1Cl | inactive
O=c1c2ccccc2nc(/C=C/c2ccccc2O)n1-c1ccccc1O | inconclusive [activator, partial curve, poor fit]
CCOc1ccc(-c2cc(C)[n+](CCO)c(-c3ccc(OCC)cc3)c2)cc1 | inactive
O=C(CCCOc1ccc(Cl)cc1Cl)N1CCC2(CC1)OCCO2 | inactive
O=C(CNC(=O)OCc1ccccc1)NCC(=O)Nc1ccc(Br)cc1C(=O)c1ccccc1 | inactive
NNC(=O)c1ccc(Cl)cc1 | inconclusive [activator, partial curve, poor fit]
Fc1ccccc1CCNCc1cccc2ccccc12 | inactive
Cc1ccc(N=Nc2cc(C)ccc2N)cc1 | inconclusive [activator, full curve, poor fit]
CC(=O)NC1C(OC(=O)Cc2ccccc2)OC(COC(C)=O)C(OC(C)=O)C1OC(C)=O (stereo unspecified) | inconclusive [activator, full curve, poor fit]
COC(=O)C1=C(c2cccc(OCc3ccccc3)c2)C[C@@H]2CC[C@H]1N2C(=O)NCc1cccc(OC)c1 | inactive
O=C1NC(=O)C(=Cc2ccc(Sc3ccccc3)o2)C(=O)N1 | inactive
Cc1nc2ccccc2c(=O)n1-c1cccc(O)c1 | inactive
OC[C@H]1O[C@@H](n2cnc3cc(Cl)c(Cl)cc32)[C@H](O)[C@@H]1O | inactive
c1ccc2sc(NC3=NCCN3)nc2c1 | inconclusive [activator, partial curve, poor fit]
CCCCOc1ccc(CN2CCN(CCO)CC2)cc1 | inconclusive [activator, partial curve, poor fit]
O=C(Nc1nc2ccccc2n1CCN1CCCC1)c1ccc(Cl)cc1 | inconclusive [activator, partial curve, poor fit]
c1ccc(NC2=Nc3ccccc3CC2)cc1 | inconclusive [activator, single point]
COc1cc(CC2(CCc3ccncc3)C(=O)NC(=O)NC2=O)cc(OC)c1OC | inactive
Nc1ncc2[nH]cnc2n1 | inactive
COc1ccc(Cn2c(N)c(C(=O)NCc3ccco3)c3nc4ccccc4nc32)cc1 | inactive
NCC(O)c1cc(O)c(O)cc1F (stereo unspecified) | inactive
COC(=O)C1=C(c2ccc(OCc3ccccc3)cc2)C[C@@H]2CC[C@H]1N2C(=O)NCc1ccc(OC)c(OC)c1 | inactive
COP(=O)(/C=C(\Cl)c1ccccc1)/C=C(\Cl)c1ccccc1 | inactive

Compound | Potency
Cc1ccc(N=Nc2c(O)[nH]c(=O)[nH]c2=O)c([N+](=O)[O-])c1 | inconclusive [activator, partial curve, poor fit]
CC1CCC2(CC1)NC(=O)N(NC(=O)CCl)C2=O (stereo unspecified) | inconclusive [activator, single point]
Cc1ccc(-n2c(O)c(/C=C3/C(c4ccccc4)=Nc4ccccc43)c(=O)[nH]c2=O)cc1 | inconclusive [activator, full curve, poor fit]
CCCCNC(=O)c1c(N)n(CCCOC)c2nc3ccccc3nc12 | inactive
Cn1cccc1CNCCc1ccc(F)cc1 | inactive
COC(=O)C(O)(c1ccc(NC(=O)c2cccs2)cc1)C(F)(F)F (stereo unspecified) | inactive
CC(C)(O)C(=O)Nc1ccc([N+](=O)[O-])c(C(F)(F)F)c1 | inactive
O=C(Cc1ccccc1)N1CCN(Cc2c[nH]c3ccccc23)CC1 | inactive
O=C(c1cc2c(s1)-c1ccccc1OC2)N1CCC2(CC1)OCCO2 | inconclusive [activator, partial curve, poor fit]
Cc1ccsc1C(=O)C1CCCN(Cc2cnc(N3CCOCC3)s2)C1 (stereo unspecified) | inactive
Nc1ccccc1C(=O)OC1CSC1 | inactive
Cc1cccc(-n2c(O)c(C=Nc3ccccc3N)c(=O)[nH]c2=O)c1 | inconclusive [activator, partial curve, poor fit]
CCOc1ccc(NC(=O)c2c(C)nn(Cc3ccccc3)c2Cl)cc1 | inactive
CC(C)N1CCN(Cc2c[nH]c3ccccc23)CC1CCO (stereo unspecified) | inconclusive [activator, single point]
CCOc1ccc(N2C(=O)/C(=C/c3ccco3)C(=O)NC2=S)cc1 | inconclusive [activator, single point]
Cc1ccc2nc(N3CCC(C(=O)N4CCC5(CC4)OCCO5)CC3)sc2c1 | inconclusive [activator, partial curve]
CC/C(=N\NC(=O)c1ccccc1O)c1c(O)n(C2CCCCC2)c(=O)[nH]c1=O | inactive
COCCNC(=O)N1[C@H]2CC[C@@H]1C(C(=O)OC)=C(c1ccc(OC)c(OC)c1)C2 | inconclusive [activator, partial curve, poor fit]
CN1C(=O)NC(c2cccc(O)c2)C(C(=O)c2cccs2)C1(O)C(F)(F)F (stereo unspecified) | inconclusive [activator, partial curve, poor fit]
O=C(Oc1ccnc2cc(Cl)ccc12)N1CCOCC1 | inconclusive [activator, single point]
O=C(CCCCCn1c(=S)[nH]c2ccccc2c1=O)N1CCC2(CC1)OCCO2 | inactive
COc1ccc(C(=O)C2CCCN(Cc3ccon3)C2)c(OC)c1 (stereo unspecified) | inactive
N=C1c2ccccc2CN1NC(=O)c1ccco1 | inactive
C/C(=N\N1CCCCC1c1cccnc1)c1c(O)n(C2CCCCC2)c(=S)[nH]c1=O (stereo unspecified) | inactive
OC(c1cccc(Cl)c1)(c1cccc(Cl)c1)C1CN2CCC1CC2 (stereo unspecified) | inactive
